In PubChem BioAssay AID624172 (National Center for Advancing Translational Sciences (NCATS), 2012):
In all, about 380,000 compounds went through this assay and about 25 (0.007%) were called active. Inconclusive means that the source gave no clear call. Such entries were picked first, then a sample of the others. The call rests on the fitted dose curve; in most records, active means well fitted activation curve with a large enough effect; inconclusive means small, poorly fitted or top-dose-only effect; inactive means no such curve, though single readings can be large or run the other way. Potencies of inconclusive entries are left out as doubtful fits.

biological target: Glucagon-like peptide 1 receptor (Homo sapiens) (UniProt P43220); assay: qHTS of GLP-1 Receptor Agonists; details: HEK293 GLP-1R CRE-luciferase, luminescence, 4-6 h, cells express a hypersensitive GLP-1R form; activation: at 45.6 µM (top of the series) unless noted; on activation: % of control where 0% means no effect
Source text: The overall goal of this project was to develop a novel assay for discovering small molecule ligands for class B1 G protein-coupled receptors (GPCRs). Very few agonists (or inverse agonists) with generally weak activity for this entire group of physiologically important receptors are known to date. To establish proof-of-principle that this critical bottleneck can be overcome with a suitable screening approach, our studies focused on the class B1 receptor for glucagon-like peptide-1 (GLP-1R), a potential therapeutic target for diabetes and neurodegenerative disease.
The assay was developed in a "mix and measure" format using a cell-based functional readout. Toward this goal, stably transfected HEK293 cell clones were established that co-express (i) a cAMP-responsive luciferase reporter gene, and (ii) GLP-1Rs that upon ligand interaction either stimulate (agonists) or inhibit (inverse agonists) luciferase activity. In different cell lines to be used for screening, expressed GLP-1Rs are specifically optimized for high sensitivity detection of either weak agonists (hypersensitive receptor) or inverse agonists (constitutively active receptor mutant). In addition, control cell lines were developed that express either the cAMP-responsive reporter gene without recombinant GLP-1Rs (enabling initial exclusion of GLP-1R independent effects of candidate probes), or the reporter gene together with wild type GLP-1Rs (for confirmation of probe activity at this receptor), or the reporter gene in combination with the constitutively active orphan receptor GPR119 (enabling initial exclusion of GLP-1R independent inhibitory effects of candidate inverse agonists).
To that end, this assay was optimized for 1536-well format and screened against the MLSMR.
NIH Molecular Libraries Probe Production Network [MLPCN]
NIH Chemical Genomics Center [NCGC]
PI Name: Martin Beinborn, Tufts Medical Center
In a white solid 1536-well plate, 6 uL of cells are dispensed in DMEM without phenol red, 10% Nu serum, and 1% pen-strep medium. The plates are then incubated for 12 hours at 37 deg C at 5% CO2 before 23 nL of compounds are added. After a 4-6 hr incubation at37 deg C and 5% CO2, 3 uL of detection reagent are added and after a 12 min incubation at RT, a luminescent read is obtained on the ViewLux.
Potency means the concentration at half of the fitted maximal effect; tags describe the fitted curve by direction and shape.

Chain of UniProt P43220 (P43220 whole entry, looked up): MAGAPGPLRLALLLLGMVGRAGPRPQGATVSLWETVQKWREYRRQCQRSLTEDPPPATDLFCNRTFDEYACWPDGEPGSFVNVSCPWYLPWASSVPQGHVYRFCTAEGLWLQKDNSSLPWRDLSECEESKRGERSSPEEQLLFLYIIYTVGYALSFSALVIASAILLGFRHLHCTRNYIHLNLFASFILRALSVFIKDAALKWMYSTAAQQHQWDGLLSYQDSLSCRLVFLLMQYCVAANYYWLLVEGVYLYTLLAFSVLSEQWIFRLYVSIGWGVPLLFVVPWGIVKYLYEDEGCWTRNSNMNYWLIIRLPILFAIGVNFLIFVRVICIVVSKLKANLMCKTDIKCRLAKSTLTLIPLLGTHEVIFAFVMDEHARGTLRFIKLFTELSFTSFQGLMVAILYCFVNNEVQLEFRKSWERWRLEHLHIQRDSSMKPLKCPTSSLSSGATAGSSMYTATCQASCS

| Compound | Potency | activation |
| --- | --- | --- |
| N#Cc1c(-c2ccc(F)cc2)noc1N | inconclusive [activator, partial curve, poor fit] |  |
| CCCCC(=O)Nc1ccc(C(=O)NNC(=O)CCc2ccccc2)cc1 | inactive |  |
| COc1ccc(C(C(=O)NC2CCCCC2)N(C(=O)CCl)c2cccc(Cl)c2)cc1 (centres undefined) | inactive |  |
| Cn1c(=O)[nH]c(=O)c2c1nc(Br)n2CCC(=O)c1ccccc1 | inactive |  |
| O=C(COc1ccccc1Cl)NCCc1ccc2c(c1)OCCO2 | inconclusive [activator, partial curve, poor fit] |  |
| CN(C)c1ccc(C#Cc2ccc3cc(CCCO)oc(=O)c3c2)cc1 | inconclusive [activator, partial curve, poor fit] |  |
| Cc1cccc(NC(=S)NC(NC(=O)OCc2ccccc2)C(Cl)(Cl)Cl)c1 (centres undefined) | inactive |  |
| O=C(NC(c1ccccc1)c1cnccn1)C1CCN(CCCOc2ccccc2)CC1 (centres undefined) | inactive |  |
| COc1ccc(CCC(C)NCc2ccc(F)cc2)cc1 (centres undefined) | inconclusive [activator, full curve, poor fit] |  |
| COC(=O)c1ccc(C(=O)OC)c(NC(=O)CN(c2ccc3c(c2)OCO3)S(C)(=O)=O)c1 | inconclusive [activator, single point] |  |
| Cc1csc2c(N3CCCCC3)ncnc12 | inconclusive [activator, single point] |  |
| O=C1/C(=C/c2ccccn2)COc2ccccc21 | inactive |  |
| CCCCn1c(SCc2ccc(Cl)cc2)nc2c1c(=O)[nH]c(=O)n2C | inconclusive [activator, partial curve, poor fit] |  |
| CCOC(=O)/C(C#N)=C/C1=C(N2CCCC2)CC(C)(CC)OC1 (centres undefined) | inconclusive [activator, single point] |  |
| O=C(NCCCCc1ccccc1)c1ccccc1 | inactive |  |
| C=CCN1C(=O)N(/C=C/C)c2cccc3cccc1c23 | inconclusive [activator, single point] |  |
| Cc1nn(-c2ccccc2)c(C)c1/C=N/NC(=O)c1cc(-c2cccs2)[nH]n1 | inconclusive [activator, partial curve, poor fit] |  |
| CCOC(=O)c1[nH]c(C)c(/C(O)=C2\C(=O)C(=O)N(CCCN(CC)CC)C2c2cccnc2)c1C (centres undefined) | inactive |  |
| CCC(=O)Nc1cccc(-c2csc(-c3ccccc3)n2)c1 | inactive |  |
| CC(C)CCNC(=S)Nc1ccccn1 | inconclusive [activator, partial curve, poor fit] |  |
| COc1cccc(C=NNC(=O)c2ccncc2)c1O |  | inconclusive: 40.3% [activator] |
| Cc1cc(C)n(-c2nnc3n2N=C(c2c[nH]c4ccccc24)CS3)n1 | inconclusive [activator, partial curve] |  |
| CCOC(C)=O | inconclusive [activator, full curve, poor fit] |  |
| COc1ccc(NC(=S)NC(=O)c2ccccc2Cl)cc1 | inactive |  |
| CCNC(=S)N1CCc2cc(OC)c(OC)cc2C1COc1ccc(OC)cc1 (centres undefined) | inconclusive [activator, partial curve, poor fit] |  |

| Compound | Potency | activation |
| --- | --- | --- |
| O=C(Nc1nnc(SCc2ccc(F)cc2)s1)c1ccccn1 | inconclusive [activator, single point] |  |
| Cc1c(C)n(Cc2ccccc2)c2ncnc(NCCO)c12 | inconclusive [activator, partial curve, poor fit] |  |
| CC(=O)Nc1ccc(NS(=O)(=O)c2ccc(C)cc2)cc1[N+](=O)[O-] | inactive |  |
| CNC[C@H](O)c1ccc(O)c(O)c1 | inconclusive [activator, partial curve, poor fit] | inconclusive: 35.1% [activator] |
| CCCCCCn1c(SCCOC)nc2c1c(=O)[nH]c(=O)n2C | inactive |  |
| C=CCOC(=O)COc1ccc2c3c(c(=O)oc2c1)CCCC3 | inconclusive [activator, single point] |  |
| Cc1ccc(S(=O)(=O)N[C@H](C(=O)N2CCC3(O)CCCCC3C2)c2ccccc2)cc1 (some centres undefined) | inactive |  |
| O=C1/C(=C/c2cccs2)N=C(c2cccs2)N1Nc1ccccc1 | inactive |  |
| CN(CC1COc2ccccc2O1)C(=O)CSc1ncnc2sccc12 (centres undefined) | inconclusive [activator, single point] |  |
| O=c1c2ccccc2nc(-c2ccco2)n1CCCn1ccnc1 | inconclusive [activator, single point] |  |
| O=C(c1noc2c1CCCC2)N1CCc2c([nH]c3ccccc23)C1c1ccccn1 (centres undefined) | inactive |  |
| C/C(=N\Nc1nc2ccccc2[nH]1)c1ccc(C)o1 | inconclusive [activator, full curve] |  |
| Cc1ccc(SCC(=O)NCc2ccccc2C)cc1 | inactive |  |
| C/C(=N/NC(=O)CCc1ccccc1)c1ccc2c(c1)OCO2 | inconclusive [activator, single point] |  |
| COCCCn1c(SCC(=O)NNC(=O)c2cccc(O)c2)nnc1-c1ccncc1 |  | inconclusive: 48% [activator] |
| CCOC(=O)C1=C(COCCN)NC(C)=C(C(=O)OC)C1c1ccccc1Cl (centres undefined) |  | inconclusive: 54.1% [activator] |
| CCOC(=O)N1CCN(C(c2cccnc2)c2ccc3cccnc3c2O)CC1 (centres undefined) | inconclusive [activator, partial curve, poor fit] |  |
| CN(C)c1nc(-c2ccccc2)ncc1S(=O)(=O)c1ccccc1 | inactive |  |
| COC(=O)c1cc(-c2ccc(OC)c(OC)c2)on1 | inconclusive [activator, single point] |  |
| CCCc1cc(-c2ccc(O)c(OCC)c2)c(C#N)c(N)n1 | inconclusive [activator, single point] |  |
| CCN(CC)CCNC(=O)c1c(C)[nH]c(/C=C2\C(=O)Nc3ccc(F)cc32)c1C | inactive |  |
| O=c1ccc2ccc(OCc3nnc(-c4ccccc4Br)o3)cc2o1 | inconclusive [activator, single point] |  |
| CCCCc1nc2n[nH]c(N)c2c2c1CCCC2 | inconclusive [activator, partial curve, poor fit] |  |
| Cc1[nH]nc(SCC(=O)Nc2ccc(C#N)cc2)c1[N+](=O)[O-] | inconclusive [activator, single point] |  |
| CCOc1ccc(CN2CCC(n3nccc3NC(=O)c3ccccc3OC)CC2)cc1 | inconclusive [activator, single point] |  |

| Compound | Potency | activation |
| --- | --- | --- |
| CCN(CC)c1nc(C(F)(F)F)nc2c1nnn2Cc1ccccc1 | inconclusive [activator, single point] |  |
| CC1CCCC(NS(=O)(=O)c2cc3c(cc2Cl)NC(=O)CO3)C1C (centres undefined) | inconclusive [activator, partial curve, poor fit] |  |
| O=C(CSc1nnc(CCCN2C(=O)c3cccc4cccc(c34)C2=O)n1-c1ccccc1)NCCCO | inactive |  |
| CCCCCCCCC(=O)N/N=C/c1ccccn1 | inconclusive [activator, partial curve, poor fit] |  |
| CC1CCCN(CC(O)COc2ccc(Cl)cc2)C1 (centres undefined) | inactive |  |
| CCCCN(CC)C(=O)c1cc2cc3ccc(OC)cc3nc2o1 | inconclusive [activator, full curve, poor fit] |  |
| Cc1ccc(C=C2C(Cl)=C(Cl)C(Cl)=C2Cl)cc1 | inactive |  |
| O=C1c2ccccc2NC(c2cccc([N+](=O)[O-])c2)N1O (centres undefined) | inactive |  |
| O=C(c1ccc(Cl)cc1)C1CCCN(Cc2cccn2-c2ccccn2)C1 (centres undefined) | inactive |  |
| COc1cc(S(=O)(=O)N2CCN(Cc3ccc4c(c3)OCO4)CC2)c(C)cc1C | inactive |  |
| CCOc1ccc(CN(C)C(=O)c2cc3ccccc3o2)cc1OC | inconclusive [activator, partial curve] |  |
| O=C(Nc1ccccc1)OCc1cc(-c2ccccc2Cl)on1 | inconclusive [activator, single point] |  |
| Cc1ccccc1C(=O)NC(=S)Nc1ccc(S(=O)(=O)N(C)c2ccccc2)cc1 | inactive |  |
| COc1cc(OC)c(C(=O)OC(C)C(=O)Nc2cccc(C(F)(F)F)c2)cc1OC (centres undefined) | inconclusive [activator, single point] |  |
| Cc1ccc(Nc2ncccc2C(=O)O)cc1C | inconclusive [activator, partial curve, poor fit] |  |
| c1ccc2c(c1)OCC(c1csc3ncnc(N4CCCC4)c13)O2 (centres undefined) | inactive |  |
| COc1ccc(Cc2nnc(-c3cccc(C)c3)o2)cc1OC | inconclusive [activator, partial curve, poor fit] |  |
| O=C1Nc2cnc(Cl)nc2Nc2ccccc21 | inconclusive [activator, partial curve, poor fit] |  |
| O=C(Oc1cccc(N2C(=O)C3C4c5ccccc5C(c5ccccc54)C3C2=O)c1)c1ccco1 (centres undefined) | inconclusive [activator, full curve, poor fit] |  |
| COc1ccccc1NC(=O)Nc1nc(C(N)C(C)C)cs1 (centres undefined) | inactive |  |
| Cc1ccc(S(=O)(=O)N2CCC(C)CC2)cc1 | inactive |  |
| O=c1[nH]ncc(N/N=C\c2ccc(O)cc2O)c1Cl | inconclusive [activator, partial curve, poor fit] |  |
| CC1CN(c2nc(N(C)c3ccccc3)nc(N)c2[N+](=O)[O-])CC(C)O1 (centres undefined) | inconclusive [activator, partial curve, poor fit] |  |
